{
  "source": "paper PMC4336329",
  "about": "(PLoS ONE, 2015)",
  "note": "The whole screen tested about 310,000 compounds, of which about 2,200 (0.71%) showed an effect of 50% or more. The effect is printed as a negative number. Some of the results follow.",
  "data": [
    {"biological_target": "human ether-à-go-go-related gene (hERG) potassium channel (human, UniProt Q12809)", "sequence (Q12809 whole entry, looked up)": "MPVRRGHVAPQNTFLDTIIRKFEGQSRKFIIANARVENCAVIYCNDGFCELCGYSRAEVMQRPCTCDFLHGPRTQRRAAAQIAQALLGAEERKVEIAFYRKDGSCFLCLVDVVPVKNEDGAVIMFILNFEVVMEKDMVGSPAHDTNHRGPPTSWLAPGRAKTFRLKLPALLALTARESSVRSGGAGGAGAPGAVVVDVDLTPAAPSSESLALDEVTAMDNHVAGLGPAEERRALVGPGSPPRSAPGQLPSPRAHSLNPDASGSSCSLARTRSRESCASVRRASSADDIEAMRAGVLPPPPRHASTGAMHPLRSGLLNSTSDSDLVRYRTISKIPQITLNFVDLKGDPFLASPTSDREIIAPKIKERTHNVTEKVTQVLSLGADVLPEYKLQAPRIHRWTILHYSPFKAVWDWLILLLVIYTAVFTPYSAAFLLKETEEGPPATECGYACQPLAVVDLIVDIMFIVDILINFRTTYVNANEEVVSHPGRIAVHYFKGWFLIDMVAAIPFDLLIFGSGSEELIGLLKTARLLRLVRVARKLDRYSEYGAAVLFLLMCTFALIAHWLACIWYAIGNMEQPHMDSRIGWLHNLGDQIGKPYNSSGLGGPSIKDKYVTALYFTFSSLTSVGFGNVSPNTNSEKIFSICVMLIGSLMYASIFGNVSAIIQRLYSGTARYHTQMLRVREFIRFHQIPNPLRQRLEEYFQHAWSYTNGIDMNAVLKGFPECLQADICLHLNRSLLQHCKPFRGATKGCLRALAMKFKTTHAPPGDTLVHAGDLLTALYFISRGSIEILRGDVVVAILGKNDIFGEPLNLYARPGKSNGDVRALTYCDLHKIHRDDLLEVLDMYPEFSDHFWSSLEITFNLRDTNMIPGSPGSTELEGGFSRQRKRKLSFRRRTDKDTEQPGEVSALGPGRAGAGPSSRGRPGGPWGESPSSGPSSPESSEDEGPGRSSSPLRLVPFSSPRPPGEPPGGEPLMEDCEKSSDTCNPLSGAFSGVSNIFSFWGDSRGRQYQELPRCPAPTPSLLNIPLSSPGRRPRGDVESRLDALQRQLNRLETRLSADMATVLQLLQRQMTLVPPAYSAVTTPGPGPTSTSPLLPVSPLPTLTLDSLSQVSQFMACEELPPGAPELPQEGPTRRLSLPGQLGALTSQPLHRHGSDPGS", "experiment": "primary screen, population patch clamp on CHO cells stably expressing hERG", "units": {"hERG current change (%, negative = inhibition) at 1uM": "%"}, "values": [
      {"smiles": "CC(=Nc1ccc2c(c1)CCC2)c1c(O)n(C2CCCCC2)c(=O)[nH]c1=O", "hERG current change (%, negative = inhibition) at 1uM": 8.82},
      {"smiles": "COc1ccc(CNC(=O)c2ccc(N3CCC4(CC3)CC(c3ccc(Cl)cc3)=NO4)c(NC(=O)c3ccccc3)c2)cc1", "hERG current change (%, negative = inhibition) at 1uM": -1.44},
      {"smiles": "O=C1NC(=O)N(CCc2ccc(F)cc2)C(=O)/C1=C/C=C/c1ccccc1", "hERG current change (%, negative = inhibition) at 1uM": 8.13},
      {"smiles": "N/C(=N\\O)c1ccc([N+](=O)[O-])s1", "hERG current change (%, negative = inhibition) at 1uM": 11.4},
      {"smiles": "O=C(CSc1ncn[nH]1)Nc1ccccc1Sc1ccc(Cl)cc1", "hERG current change (%, negative = inhibition) at 1uM": -7.69},
      {"smiles": "O=c1c2ccc([N+](=O)[O-])cc2ncn1CCOc1ccccc1", "hERG current change (%, negative = inhibition) at 1uM": 4.81},
      {"smiles": "CC1(C)CC(=O)C2=C(C1)OC(N)=C(C#N)C2c1ccccc1", "note": "(centres unmarked)", "hERG current change (%, negative = inhibition) at 1uM": -6.74},
      {"smiles": "CC1Cc2ccccc2N1S(=O)(=O)c1cccc(C(=O)NC2CC2)c1", "note": "(centres unmarked)", "hERG current change (%, negative = inhibition) at 1uM": 1.2},
      {"smiles": "O=[N+]([O-])c1cccc(CSc2cccc[n+]2[O-])c1", "hERG current change (%, negative = inhibition) at 1uM": -3.74},
      {"smiles": "Cc1ccc(NC(=O)N/C=C/c2ccco2)cc1", "hERG current change (%, negative = inhibition) at 1uM": 1.58},
      {"smiles": "COc1ccc(S(=O)(=O)N(C)CC(=O)NCCC2=CCCCC2)cc1OC", "hERG current change (%, negative = inhibition) at 1uM": -10.2},
      {"smiles": "COc1ccc(CCNC(=O)c2nc(-c3cccs3)no2)cc1OC", "hERG current change (%, negative = inhibition) at 1uM": 7.6},
      {"smiles": "O=C(Nc1ccccc1)N(C1=NCCCCS1)c1ccccc1", "hERG current change (%, negative = inhibition) at 1uM": 12.7},
      {"smiles": "CC(=O)N1CCN(c2ccc([N+](=O)[O-])cc2C=C2C(=O)NC(=O)NC2=O)CC1", "hERG current change (%, negative = inhibition) at 1uM": -16.3},
      {"smiles": "O=C(CSc1nnc(-c2ccc3c(c2)OCO3)n1-c1ccccc1)c1ccccc1", "hERG current change (%, negative = inhibition) at 1uM": 3.9},
      {"smiles": "O=C(NC1CCS(=O)(=O)C1)c1ccc(Br)o1", "note": "(centres unmarked)", "hERG current change (%, negative = inhibition) at 1uM": 11.2},
      {"smiles": "O=C(Nc1ccccn1)c1ccc(CN(c2ccccc2)S(=O)(=O)c2ccccc2)cc1", "hERG current change (%, negative = inhibition) at 1uM": 13},
      {"smiles": "COc1ccc(C(=O)COC(=O)COc2cccc3c2OC(C)(C)C3)c(OC)c1", "hERG current change (%, negative = inhibition) at 1uM": 13},
      {"smiles": "O=C1C=C(c2ccc(-c3ccccc3)cc2)C[C@@H](c2ccc(F)cc2)C1", "hERG current change (%, negative = inhibition) at 1uM": 6.09},
      {"smiles": "Cc1ccc(NCc2nnc(SCC(=O)N3CCCc4ccccc43)o2)c(C)c1", "hERG current change (%, negative = inhibition) at 1uM": 16.3},
      {"smiles": "CCOC(=O)C1C(c2cccc(Cl)c2Cl)NC(=O)NC1(O)C(F)(F)F", "note": "(centres unmarked)", "hERG current change (%, negative = inhibition) at 1uM": 3.03},
      {"smiles": "CCC(=O)c1ccc(OCC(=O)OCC(=O)NC2CCCCCC2)cc1", "hERG current change (%, negative = inhibition) at 1uM": 16.8},
      {"smiles": "CCC(C)NC(=O)CCc1c(C)nc2c(c(C)nn2-c2ccccc2)c1C", "note": "(centres unmarked)", "hERG current change (%, negative = inhibition) at 1uM": 14},
      {"smiles": "O=C1CSC(=S)N1/N=C/c1c(F)cccc1F", "hERG current change (%, negative = inhibition) at 1uM": 13.7},
      {"smiles": "Cc1cc(C)nc(NC(=O)CSc2nc3ccccc3o2)n1", "hERG current change (%, negative = inhibition) at 1uM": -1.5},
      {"smiles": "CCOC(=O)c1ccccc1NC(=O)C1CC(=O)N(C2CCCCC2)C1", "note": "(centres unmarked)", "hERG current change (%, negative = inhibition) at 1uM": -1.79},
      {"smiles": "CCCCOCC1CN(c2ccccc2)C(=O)CS1", "note": "(centres unmarked)", "hERG current change (%, negative = inhibition) at 1uM": 13.7},
      {"smiles": "CCn1c(COc2cccc(C)c2C)nnc1SCC(=O)Nc1cc(C)on1", "hERG current change (%, negative = inhibition) at 1uM": 24.6},
      {"smiles": "N#Cc1c(N2CCCCC2)nc(N)c2c(N)nc3c(c12)CC(c1ccccc1)O3", "note": "(centres unmarked)", "hERG current change (%, negative = inhibition) at 1uM": 16.2},
      {"smiles": "Cc1ccc(OC(=O)CCC(=O)Nc2ccc(S(=O)(=O)Nc3cc(C)on3)cc2)cc1", "hERG current change (%, negative = inhibition) at 1uM": 7.53},
      {"smiles": "Cc1cc(C)c(NC(=O)CS(=O)CC(=O)Nc2ccc(-n3cnnn3)c(C)c2)c(C)c1", "note": "(centres unmarked)", "hERG current change (%, negative = inhibition) at 1uM": 23.9},
      {"smiles": "COc1ccc(CCNC(=S)NC(=O)c2cc(OC)c(OC)c(OC)c2)cc1OC", "hERG current change (%, negative = inhibition) at 1uM": 11.1},
      {"smiles": "CCOc1ccc(N(CC(=O)NC(C)(C)C)S(=O)(=O)c2c(C)noc2C)cc1", "hERG current change (%, negative = inhibition) at 1uM": 6.81},
      {"smiles": "O=C(O)c1cc(NS(=O)(=O)c2ccc(NC3CCCCC3)c([N+](=O)[O-])c2)cc(C(=O)O)c1", "hERG current change (%, negative = inhibition) at 1uM": 12.3},
      {"smiles": "CC1N(C)c2cc(NC(=O)c3ccco3)c(P(=O)(Nc3ccc([N+](=O)[O-])cc3)N3CCOCC3)cc2C1(C)C", "note": "(centres unmarked)", "hERG current change (%, negative = inhibition) at 1uM": -11.5},
      {"smiles": "Cc1cc(=O)[nH]c(N2CCN(C(=O)c3ccco3)CC2)n1", "hERG current change (%, negative = inhibition) at 1uM": 9.05},
      {"smiles": "CCCn1c(CN2CCN(C(=O)c3ccco3)CC2)nc2c1c(=O)n(C)c(=O)n2C", "hERG current change (%, negative = inhibition) at 1uM": 0.342},
      {"smiles": "CCN(CC)C(=O)C1CCN(Cc2ccc(Br)cc2)CC1.O=C(O)C(=O)O", "hERG current change (%, negative = inhibition) at 1uM": -16.2},
      {"smiles": "Cc1ccc(C)c(NC(=O)CSc2nc(=O)n(CCN3CCOCC3)c3c2CCCC3)c1", "hERG current change (%, negative = inhibition) at 1uM": 4.3},
      {"smiles": "CC1=C(C(=O)OCC2CCCO2)C(c2ccc(C)cc2)C2=C(CCCC2=O)N1", "note": "(centres unmarked)", "hERG current change (%, negative = inhibition) at 1uM": 8.12},
      {"smiles": "Cc1ccc(Nc2nc3ccccc3o2)cc1F", "hERG current change (%, negative = inhibition) at 1uM": 15.4},
      {"smiles": "Cl.c1ccc(Nc2c3c(nc4ccccc24)CCC3)cc1", "hERG current change (%, negative = inhibition) at 1uM": -33.1},
      {"smiles": "Cc1c(Cl)cccc1NC(=O)NN1CCN(C)CC1", "hERG current change (%, negative = inhibition) at 1uM": -0.476},
      {"smiles": "OC(CN1CCOCC1)c1ccc(F)cc1", "note": "(centres unmarked)", "hERG current change (%, negative = inhibition) at 1uM": 14.8},
      {"smiles": "Cc1cc(C)cc(-n2cnc3cc(C(=O)O)ccc32)c1", "hERG current change (%, negative = inhibition) at 1uM": 10.1},
      {"smiles": "COc1ccccc1N1CCN(C(=O)c2cc(=O)c3cc(C)ccc3o2)CC1", "hERG current change (%, negative = inhibition) at 1uM": -8.99},
      {"smiles": "c1cncc(C2CCCCN2Cc2ccc3c(c2)OCO3)c1", "note": "(centres unmarked)", "hERG current change (%, negative = inhibition) at 1uM": 10.9},
      {"smiles": "COc1ccc(NC(=O)C(=S)N2CCCC2)cc1", "hERG current change (%, negative = inhibition) at 1uM": 11.3},
      {"smiles": "CCCn1nnnc1NC(=O)c1cccs1", "hERG current change (%, negative = inhibition) at 1uM": 18.5},
      {"smiles": "O=S(=O)(Cc1ccc(Cl)cc1)c1ccccc1-c1nnc(-c2ccccc2)o1", "hERG current change (%, negative = inhibition) at 1uM": 13.4},
      {"smiles": "Oc1ccc(-c2nc3ccccc3s2)cc1", "hERG current change (%, negative = inhibition) at 1uM": 10.4},
      {"smiles": "O=C(NC1CCCC1)c1cccc(Cl)c1", "hERG current change (%, negative = inhibition) at 1uM": 9.48},
      {"smiles": "O=[N+]([O-])c1ccc(OCCCn2cncn2)cc1", "hERG current change (%, negative = inhibition) at 1uM": 3.18},
      {"smiles": "Cc1csc(-c2cnn(-c3ccccc3)c2NC(=O)c2ccccc2)n1", "hERG current change (%, negative = inhibition) at 1uM": 11.4},
      {"smiles": "O=C(NCC(c1ccco1)N1CCCC1)c1cccc(NS(=O)(=O)c2ccccc2)c1", "note": "(centres unmarked)", "hERG current change (%, negative = inhibition) at 1uM": 2.07},
      {"smiles": "C/C(=N\\NC(=O)c1c[nH]c2ccccc12)c1ccc(C)s1", "hERG current change (%, negative = inhibition) at 1uM": 0.576}
    ]}
  ]
}
